Results as given in patent US20230416360A1 (SIMCERE ZAIMING PHARMACEUTICAL, published 2023).

Columns and labels:
human CD22-ECD-His = target: T1, human CD22-ECD-His (human, UniProt P20273 20-687); test: ELISA on coated human CD22-ECD-His
T1 construct: Made in HEK293E, purified on nickel column; also called hCD22-ECD-His; recombinant human CD22-ECD His; not shown: His tag
T1 sequence: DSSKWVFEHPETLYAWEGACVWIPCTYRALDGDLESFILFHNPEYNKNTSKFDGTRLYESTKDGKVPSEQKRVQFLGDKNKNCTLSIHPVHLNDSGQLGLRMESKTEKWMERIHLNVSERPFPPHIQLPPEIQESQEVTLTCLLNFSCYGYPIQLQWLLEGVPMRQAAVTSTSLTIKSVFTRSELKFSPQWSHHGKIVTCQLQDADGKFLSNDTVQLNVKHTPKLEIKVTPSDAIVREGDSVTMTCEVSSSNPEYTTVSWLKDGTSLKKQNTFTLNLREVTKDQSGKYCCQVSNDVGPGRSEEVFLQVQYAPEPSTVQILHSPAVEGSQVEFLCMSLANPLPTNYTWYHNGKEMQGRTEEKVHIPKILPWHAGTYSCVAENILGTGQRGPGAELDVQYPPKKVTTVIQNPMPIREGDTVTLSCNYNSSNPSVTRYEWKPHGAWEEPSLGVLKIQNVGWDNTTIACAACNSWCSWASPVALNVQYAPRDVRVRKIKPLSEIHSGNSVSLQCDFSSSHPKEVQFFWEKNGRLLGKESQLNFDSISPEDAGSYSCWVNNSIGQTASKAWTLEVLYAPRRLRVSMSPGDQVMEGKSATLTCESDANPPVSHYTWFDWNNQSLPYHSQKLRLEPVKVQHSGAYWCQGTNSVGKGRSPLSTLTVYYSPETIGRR

human CD22 domain1-4-His = target: T2, human CD22 domain1-4-His (human, UniProt P20273 20-425); test: ELISA on coated human CD22 domain1-4-His
T2 construct: Distal end of membrane fragment; also called hCD22 domain1-4-His; not shown: His tag
T2 sequence: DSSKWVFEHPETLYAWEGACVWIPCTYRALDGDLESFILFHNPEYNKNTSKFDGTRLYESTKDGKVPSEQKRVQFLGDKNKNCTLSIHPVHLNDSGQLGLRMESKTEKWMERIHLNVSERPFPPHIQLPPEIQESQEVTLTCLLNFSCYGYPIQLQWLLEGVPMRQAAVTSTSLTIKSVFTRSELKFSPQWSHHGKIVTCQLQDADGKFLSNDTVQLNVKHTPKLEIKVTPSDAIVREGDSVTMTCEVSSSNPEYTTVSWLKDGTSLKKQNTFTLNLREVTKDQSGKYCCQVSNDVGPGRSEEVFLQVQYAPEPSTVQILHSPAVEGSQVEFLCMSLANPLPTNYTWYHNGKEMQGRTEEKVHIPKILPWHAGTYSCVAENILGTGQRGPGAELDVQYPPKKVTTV

B1: HA22 scFv-hFc (Fc fusion)
chain: EVQLVESGGGLVKPGGSLKLSCAASGFAFSIYDMSWVRQTPEKCLEWVAYISSGGGTTYYPDTVKGRFTISRDNAKNTLYLQMSSLKSEDTAMYYCARHSGYGTHWGVLFAYWGQGTLVTVSAGGGGSGGGGSGGGGSDIQMTQTTSSLSASLGDRVTISCRASQDISNYLNWYQQKPDGTVKLLIYYTSILHSGVPSRFSGSGSGTDYSLTISNLEQEDFATYFCQQGNTLPWTFGCGTKLEIK[human IgG1 Fc with changes cut from this listing]
EC50 (read off the curve) (human CD22-ECD-His): ~0.3 nM
EC50 (read off the curve) (human CD22 domain1-4-His): ~0.5 nM
